This passage reports binding results from patent US20230312722A1.

Sequences of proteins named here, by UniProt entry; tags and fusion partners are left off. A change or cut given only in a name is not applied to a line headed by its entry. Residues count along the entry.
UniProt Q9H7M9, residues 33-194: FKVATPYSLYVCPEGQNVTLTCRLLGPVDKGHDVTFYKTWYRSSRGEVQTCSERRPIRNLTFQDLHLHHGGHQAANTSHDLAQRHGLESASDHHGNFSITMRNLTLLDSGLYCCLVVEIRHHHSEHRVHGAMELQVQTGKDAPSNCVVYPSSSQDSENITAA
UniProt P42081, residues 26-247: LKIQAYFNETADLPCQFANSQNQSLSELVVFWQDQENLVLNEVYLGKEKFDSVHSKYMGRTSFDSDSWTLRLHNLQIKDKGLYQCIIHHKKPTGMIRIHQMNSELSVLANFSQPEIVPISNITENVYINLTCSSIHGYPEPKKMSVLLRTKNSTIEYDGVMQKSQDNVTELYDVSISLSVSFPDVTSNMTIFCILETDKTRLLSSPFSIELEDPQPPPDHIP
UniProt Q9NZQ7: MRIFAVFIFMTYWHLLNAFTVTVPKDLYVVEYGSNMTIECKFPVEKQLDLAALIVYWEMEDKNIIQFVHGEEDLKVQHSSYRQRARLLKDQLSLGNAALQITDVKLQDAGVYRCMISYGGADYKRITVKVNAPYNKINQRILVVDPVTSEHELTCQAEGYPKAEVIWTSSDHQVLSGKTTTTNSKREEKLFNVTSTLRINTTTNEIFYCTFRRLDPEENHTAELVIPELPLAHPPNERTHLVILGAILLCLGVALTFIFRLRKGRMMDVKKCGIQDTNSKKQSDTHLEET

These are yes or no findings as the source states them, for the method shown. Some entries that bind do so weakly or less than the wild type. For part of these data: Tags and fused reporters may be left off the sequences shown.

Assay [1] has as its target T1, human B7-H4 (recombinant protein of the BLI affinity assay, Example 7.2) (human) (UniProt Q7Z7D3).
T1 sequence (looked up): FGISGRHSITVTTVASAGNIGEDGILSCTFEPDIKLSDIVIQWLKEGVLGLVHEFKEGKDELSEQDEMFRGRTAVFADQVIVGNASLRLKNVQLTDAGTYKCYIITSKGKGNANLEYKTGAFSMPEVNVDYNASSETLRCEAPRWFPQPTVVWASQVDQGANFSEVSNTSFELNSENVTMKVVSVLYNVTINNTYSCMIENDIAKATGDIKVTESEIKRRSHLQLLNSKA
Briefly: BLI (Octet Red 96e). (In general: Biolayer interferometry detects binding as a change in optical thickness at a sensor tip.)

In assay [2] the target is cynomolgus monkey B7H4 on the cell surface (cynomolgus monkey). Description: FACS, CHOK1/cyno B7H4 cells (FIG. 3). Background: Flow cytometry measures light scatter and fluorescence of single cells or particles in a stream.
Assay [3] deals with T2, B7-H3/CD276 Protein, Human, Recombinant (ECD, Fc Tag) (Sino Biological 11188-H02H) (human) (UniProt Q5ZPR3).
T2 sequence (looked up): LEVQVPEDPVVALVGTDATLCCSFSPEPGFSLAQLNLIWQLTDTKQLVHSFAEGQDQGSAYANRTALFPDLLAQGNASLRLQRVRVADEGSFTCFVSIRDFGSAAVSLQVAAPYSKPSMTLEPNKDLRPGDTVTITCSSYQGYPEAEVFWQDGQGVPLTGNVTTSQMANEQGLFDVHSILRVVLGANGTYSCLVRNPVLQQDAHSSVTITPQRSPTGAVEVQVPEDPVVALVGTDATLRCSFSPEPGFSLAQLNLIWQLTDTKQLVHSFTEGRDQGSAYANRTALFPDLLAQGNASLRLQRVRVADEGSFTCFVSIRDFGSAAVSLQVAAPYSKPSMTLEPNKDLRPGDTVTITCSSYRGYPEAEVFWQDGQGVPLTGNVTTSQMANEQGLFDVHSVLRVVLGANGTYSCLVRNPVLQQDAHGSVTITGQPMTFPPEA
Description: ELISA, plate coated with 1 µg/mL B7 family protein.

The target in assay [4] is T3, CD275/ICOS ligand Protein, Human, Recombinant (Fc Tag) (Sino Biological 11559-H02H) (human) (UniProt O75144).
T3 sequence (looked up): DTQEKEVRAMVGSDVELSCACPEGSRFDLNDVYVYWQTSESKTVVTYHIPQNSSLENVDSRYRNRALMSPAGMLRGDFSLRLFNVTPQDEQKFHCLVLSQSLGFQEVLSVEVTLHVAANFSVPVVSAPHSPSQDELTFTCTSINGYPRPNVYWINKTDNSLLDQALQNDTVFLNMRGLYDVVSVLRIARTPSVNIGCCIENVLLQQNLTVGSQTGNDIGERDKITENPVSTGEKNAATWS
Description: ELISA, plate coated with 1 µg/mL B7 family protein. On the technique in general: ELISA stands for enzyme-linked immunosorbent assay.

Assay [5] addresses T4, B7-H6/NCR3LG1 Protein, Human, Recombinant (Fc Tag) (Sino Biological 16140-H02H) (human) (UniProt Q68D85).
T4 sequence (looked up): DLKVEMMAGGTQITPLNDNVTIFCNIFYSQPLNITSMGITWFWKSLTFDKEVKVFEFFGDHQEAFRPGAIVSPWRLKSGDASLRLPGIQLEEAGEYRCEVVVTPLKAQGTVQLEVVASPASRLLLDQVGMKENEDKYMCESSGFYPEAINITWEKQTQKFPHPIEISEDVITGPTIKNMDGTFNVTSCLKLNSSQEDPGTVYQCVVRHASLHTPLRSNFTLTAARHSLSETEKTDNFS
Briefly: ELISA, plate coated with 1 µg/mL B7 family protein.

Assay [6] has as its target Recombinant human VISTA/B7H5/PD-1H Fc Chimera (R&D 7126-B7-050) (human) (UniProt Q9H7M9). Briefly: ELISA, plate coated with 1 µg/mL B7 family protein.
The target in assay [7] is Human B7-2/CD86 Protein, Fc Tag (Acro CD6-H5257) (human) (UniProt P42081). Briefly: ELISA, plate coated with 1 µg/mL B7 family protein.
The target in assay [8] is T5, Recombinant human B7H7/HHLA2 Fc Chimera (R&D 8084-B7-050) (human) (UniProt Q9UM44).
T5 sequence (looked up): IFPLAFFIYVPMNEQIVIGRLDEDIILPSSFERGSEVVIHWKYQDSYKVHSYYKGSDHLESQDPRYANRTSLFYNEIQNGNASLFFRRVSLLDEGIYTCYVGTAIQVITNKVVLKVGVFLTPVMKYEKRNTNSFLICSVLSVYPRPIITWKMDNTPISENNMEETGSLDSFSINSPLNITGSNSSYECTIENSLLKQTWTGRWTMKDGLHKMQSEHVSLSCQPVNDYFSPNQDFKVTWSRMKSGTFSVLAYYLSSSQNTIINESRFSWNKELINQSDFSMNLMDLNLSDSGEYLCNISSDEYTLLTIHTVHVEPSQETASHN
Briefly: ELISA, plate coated with 1 µg/mL B7 family protein.

Assay [9] concerns the target T6, Human B7-DC/PD-L2/CD273 Protein, Recombinant (Fc Tag) (Sino Biological H10292-H02H) (human) (UniProt Q9BQ51).
T6 sequence (looked up): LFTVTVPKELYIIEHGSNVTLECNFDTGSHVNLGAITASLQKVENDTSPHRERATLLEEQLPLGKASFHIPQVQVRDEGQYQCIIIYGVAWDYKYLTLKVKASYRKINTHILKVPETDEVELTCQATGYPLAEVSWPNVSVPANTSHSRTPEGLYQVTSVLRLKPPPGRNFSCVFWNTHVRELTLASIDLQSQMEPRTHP
Briefly: ELISA, plate coated with 1 µg/mL B7 family protein.

Assay [10] has as its target Human PD-L1/B7-H1 Protein, His Tag (Acro PD1-H5229) (human) (UniProt Q9NZQ7). Briefly: ELISA, plate coated with 1 µg/mL B7 family protein.
In assay [11] the target is Human B7-1/CD80 Protein, Fc Tag (Acro B71-H5259) (human) (UniProt P33681). Description: ELISA, plate coated with 1 µg/mL B7 family protein.
For assay [12], the target named is B7-H4 (Acro Biosystems, #B74-H82E2) (UniProt Q7Z7D3). Description: BLI, B7-H4 captured on SA sensor.

B1: PR003369 (antibody, human IgG1, kappa, V domains shown)
VH: QVQLVESGGGVVQPGRSLRLSCAASGFTFRSFGMHWVRQAPGKGLEWVAVISYDASNEYYADSVKGRFIISRDNSKDTLYLQMNSLRAGDTAVYYCAKGGALRWYFAYWGQGTLVTVSS
VL: EIVMTQSPATLSVSPGERATLSCRASQSISSNLGWYQQKPGQAPRLLIYGASTRATGIPARFSGSGSGTEFTLTISSLQSEDFAVYYCQQYRSWPPLTFGGGTKVEIKR
Take B1: the binding entry in [1] was “binds”.

B2: PR002038 (antibody, human IgG1, kappa, V domains shown)
VH: QVQLVQSGAEVKKPGSSMRVSCKASEDTFSSYAISWVRQAPGQGLEWMGGTAPIFGTTNYAQKFQGRVTITADKSTSTAYMELSSLRSEDTAVYYCARGGPYFDYWGQGTLVTVSS
VL: DIQLTQSPATLSVSPGERATLSCRASQSVSSNLAWYQQKPGQAPRLLIYGDYIRATGIPARFSGSGSGTEFTLTISSLQSEDIATYYCQQYVDLPITFGQGTRLEIKR
With B2, in assay [2], the binding result was “binds”.

B3: Control antibody 2 (PR002962) (antibody, human IgG1, kappa, V domains shown)
VH: QLQLQESGPGLVKPSETLSLTCTVSGGSIKSGSYYWGWIRQPPGKGLEWIGNIYYSGSTYYNPSLRSRVTISVDTSKNQFSLKLSSVTAADTAVYYCAREGSYPNQFDPWGQGTLVTVSS
VL: EIVMTQSPATLSVSPGERATLSCRASQSVSSNLAWYQQKPGQAPRLLIYGASTRATGIPARFSGSGSGTEFTLTISSLQSEDFAVYYCQQYHSFPFTFGGGTKVEIKR
In the case of B3, the binding result in assay [3], in assay [4], in assay [5], in [6], in assay [7] and in [8] was “no binding (tested: 10 nM)” in each case. In addition, the binding entry in assay [9] is “no binding (tested: 10 nM)”; in assay [10], “no binding (tested: 10 nM)”; in assay [11], “no binding (tested: 10 nM)”; in assay [12] it was “binds”.
